# The supplement of paper PMC9174493
# Where a name gives a salt, the structure may show the parent alone. Some of the results follow. Single values of this set are uncertain. Values with irradiation are relative to irradiated vehicle.
# Tested on: A549-Dual
# Test: ISRE reporter (Lucia luciferase) activity, viability-corrected, relative to vehicle (fold change vs vehicle); higher = more activation of STING-IRF / NF-kB immune response reporter
# Details: 10 µM; irradiation: 8 Gy/4 fr
row,SMILES,ISRE reporter
1,CS(=O)(=O)O.Fc1ccc(C2CCNCC2COc2ccc3c(c2)OCO3)cc1 (configuration not stated) [Paroxetine mesylate],0.475
2,Clc1ccccc1C(c1ccccc1)(c1ccccc1)n1ccnc1 [Clotrimazole],0.308
3,CCS(=O)(=O)CCn1c([N+](=O)[O-])cnc1C [Tinidazole],0.895
4,Clc1ccc(COC(Cn2ccnc2)c2ccc(Cl)cc2Cl)cc1 (configuration not stated) [Econazole],0.364
5,O=C(O)c1ccc(NC(=O)C(Cc2ccc(O)cc2)NC(=O)c2ccccc2)cc1 (configuration not stated) [Bentiromide],0.607
6,OCC(O)C(O)C(OC1OC(CO)C(O)C(O)C1O)C(O)CO (configuration not stated) [Lactitol],0.705
7,CCNC(=O)CC[C@H](N)C(=O)O [L-Theanine],0.752
8,CN(C)CC/C=C1/c2ccccc2Sc2ccc(Cl)cc21 [Chlorprothixene],1.14
9,CC(=O)OC1Cc2ccccc2N(C(N)=O)c2ccccc21 (configuration not stated) [Eslicarbazepine Acetate],0.745
10,COc1ccc(CN(CCN(C)C)c2ncccn2)cc1 [Thonzylamine],0.821
11,CC1(C)CCCC(C)(C2CCC3(C)C2C(O)CC2C4(C)CCC(O)C(C)(C)C4C(O)CC23C)O1 (configuration not stated) [Panaxatriol],0.488
12,CN(C)C(CCOc1cccc2ccccc12)c1ccccc1.Cl (configuration not stated) [Dapoxetine HCl],0.927
13,CNCC(O)C(O)C(O)C(O)CO.CNCC(O)C(O)C(O)C(O)CO.O=C(O)CN1CCN2CCN(CC(=O)O)CC(=O)[O][Gd]([O]C(=O)C2)[O]C(=O)C1 [Gadopentetate Dimeglumine],1.4
14,O=C[C@H](O)[C@@H](O)[C@H](O)[C@H](O)C(=O)O [D-Glucuronic acid],1.42
15,CC(=O)O.CC(=O)O.CCC(C)CC(C)CCCCCCCCC(=O)NC1CC(O)C(NCCN)NC(=O)C2C(O)CCN2C(=O)C(C(O)CCN)NC(=O)C(C(O)C(O)c2ccc(O)cc2)NC(=O)C2CC(O)CN2C(=O)C(C(C)O)NC1=O (configuration not stated) [Caspofungin Acetate],0.878
16,CC(OC(=O)OC1CCCCC1)OC(=O)C1=C(CSc2nnnn2CCN(C)C)CSC2C(NC(=O)Cc3csc(N)n3)C(=O)N12.Cl.Cl (configuration not stated) [Cefotiam Hexetil Hydrochloride],0.126

row,SMILES,ISRE reporter
1,CCCCCN(C)CCC(O)(P(=O)(O)O)P(=O)(O)O.O.[NaH] [Ibandronate sodium],0.907
2,CC(O)C1C(=O)N2C(C(=O)O)=C(SC3CNC(CNS(N)(=O)=O)C3)C(C)C12.O (configuration not stated) [Doripenem Hydrate],0.789
3,CS(=O)(=O)OCCCCOS(C)(=O)=O [Busulfan],0.749
4,CCOCCn1c(N2CCCN(C)CC2)nc2ccccc21 [Emedastine],0.728
5,CC1(C)OC2COC3(COS(N)(=O)=O)OC(C)(C)OC3C2O1 (configuration not stated) [Topiramate],0.765
6,O=C(O)CCCCCCCCC(=O)O [Sebacic acid],0.797
7,Nc1nc(=O)[nH]cc1F [Flucytosine],1.12
8,CCCCCCCCCCCCCCCCCCOCC(O)CO (configuration not stated) [Batyl alcohol],0.765
9,CC(CN(C)C)CN1c2ccccc2CCc2ccccc21.O=C(O)/C=C\C(=O)O (configuration not stated) [Trimipramine Maleate],0.694
10,CCCCCCCC/C=C\CCCCCCCC(=O)OC [Methyl Oleate],0.562
11,CC(O)C1C(=O)N2C(C(=O)[O-])=C(SC3Cn4cnc[n+]4C3)C(C)C12 (configuration not stated) [Biapenem],0.837
12,CN(C)c1cc(NC(=O)CNC(C)(C)C)c(O)c2c1CC1CC3C(N(C)C)C(O)=C(C(N)=O)C(=O)C3(O)C(O)=C1C2=O (configuration not stated) [Tigecycline],0.62
13,CC(=O)NS(=O)(=O)c1ccc(N)cc1 [Sulfacetamide],0.853
14,CN(C)CCOC(C)(c1ccccc1)c1ccccn1.O=C(O)CCC(=O)O (configuration not stated) [Doxylamine Succinate],0.765
15,CC(C)c1nc(N(C)S(C)(=O)=O)nc(-c2ccc(F)cc2)c1/C=C/C(O)CC(O)CC(=O)[O-].CC(C)c1nc(N(C)S(C)(=O)=O)nc(-c2ccc(F)cc2)c1/C=C/C(O)CC(O)CC(=O)[O-].[Ca+2] (configuration not stated) [Rosuvastatin Calcium],0.612
16,Cc1cc(C)nc([N]([Na])S(=O)(=O)c2ccc(N)cc2)n1 [Sulfamethazine Sodium Salt],0.768
